Measured values: PMC4336329 (PLoS ONE, 2015)
Screen size: about 310,000 compounds; about 14,000 (4.5%) showed an effect of 50% or more. The effect is printed as a negative number. The list shows a part of the results.

biological target: human ether-à-go-go-related gene (hERG) potassium channel (human, UniProt Q12809); experiment: primary screen, population patch clamp on CHO cells stably expressing hERG
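Note: peak tail current of the secondary pulse compared with the same well before compound.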

Sequence of human ether-à-go-go-related gene (hERG) potassium channel (Q12809 whole entry, looked up): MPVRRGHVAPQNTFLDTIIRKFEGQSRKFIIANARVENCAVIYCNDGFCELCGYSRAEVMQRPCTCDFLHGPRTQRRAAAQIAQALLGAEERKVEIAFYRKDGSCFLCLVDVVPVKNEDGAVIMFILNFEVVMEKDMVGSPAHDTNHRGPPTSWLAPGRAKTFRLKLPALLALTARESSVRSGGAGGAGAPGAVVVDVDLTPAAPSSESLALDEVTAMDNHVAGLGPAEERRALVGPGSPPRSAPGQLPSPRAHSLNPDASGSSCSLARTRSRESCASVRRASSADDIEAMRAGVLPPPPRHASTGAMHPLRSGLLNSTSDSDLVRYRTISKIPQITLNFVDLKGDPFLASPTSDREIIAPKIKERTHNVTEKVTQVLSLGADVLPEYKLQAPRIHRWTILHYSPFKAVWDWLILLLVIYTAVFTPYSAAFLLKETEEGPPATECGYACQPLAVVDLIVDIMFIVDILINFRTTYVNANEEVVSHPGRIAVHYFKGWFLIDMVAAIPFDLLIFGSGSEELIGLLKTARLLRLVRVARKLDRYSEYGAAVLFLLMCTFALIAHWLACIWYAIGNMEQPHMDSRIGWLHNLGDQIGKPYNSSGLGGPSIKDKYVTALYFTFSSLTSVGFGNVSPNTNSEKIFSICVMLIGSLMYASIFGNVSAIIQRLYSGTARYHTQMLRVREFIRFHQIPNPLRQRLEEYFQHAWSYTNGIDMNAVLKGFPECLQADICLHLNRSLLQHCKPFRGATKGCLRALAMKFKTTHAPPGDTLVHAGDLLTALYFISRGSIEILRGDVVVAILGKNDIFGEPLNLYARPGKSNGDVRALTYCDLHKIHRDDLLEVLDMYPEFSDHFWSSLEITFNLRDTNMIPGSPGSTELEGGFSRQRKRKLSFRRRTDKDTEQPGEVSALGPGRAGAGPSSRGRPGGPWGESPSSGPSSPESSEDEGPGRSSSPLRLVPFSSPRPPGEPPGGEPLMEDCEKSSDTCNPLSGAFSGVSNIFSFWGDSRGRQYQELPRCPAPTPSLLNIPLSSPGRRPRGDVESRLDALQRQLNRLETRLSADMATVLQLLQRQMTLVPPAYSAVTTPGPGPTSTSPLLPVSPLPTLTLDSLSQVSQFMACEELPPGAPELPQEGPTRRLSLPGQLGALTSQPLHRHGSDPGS

Row | Compound | hERG current change (%, negative = inhibition) at 10uM
1 | Cc1oc(-c2ccccc2)nc1C(=O)Nc1nccs1 | 14.7%
2 | NC(=O)c1ccc(C23CC4CC(CC(C4)C2)C3)o1 | -17%
3 | CCC(=O)Nc1ccc(N/C(N)=N/c2nc(C)cc(C)n2)cc1 | -4.25%
4 | Cc1csc2nc(COC(=O)c3ccc(Cl)c([N+](=O)[O-])c3)cc(=O)n12 | -63.1%
5 | Cc1cc(C)c2nc(SC(C)C#N)cc(C)c2c1 (stereo not shown) | 13.5%
6 | CCOc1ccccc1N1C(=O)CC(N(O)c2ccccc2)C1=O (stereo not shown) | 7.14%
7 | CS(=O)(=O)N(CC(=O)NCC1CCCO1)c1cccc([N+](=O)[O-])c1 (stereo not shown) | 26.6%
8 | CC(C)c1ccc(C(=O)CC2(O)C(=O)N(CN3CCOCC3)c3ccccc32)cc1 (stereo not shown) | 10.4%
9 | O=C1C=C(c2ccccc2)OC2(CCCC2)O1 | -24.6%
10 | Cc1c(Cl)cccc1NC(=O)CCN1CCCCCC1 | -3.92%
11 | NC(=NCCc1ccc(Cl)cc1)NS(=O)(=O)c1ccccc1 | 4.8%
12 | O=[N+]([O-])c1cnn(-c2nc(-c3ccco3)cc(C(F)(F)F)n2)c1 | -0.0425%
13 | O=C(O)CC1(CC(=O)Nc2cccc(C(F)(F)F)c2)CCCC1 | 10.5%
14 | Cc1ccc(S(=O)(=O)CC(=O)c2ccc3c(c2)OCCO3)cc1 | -1.01%
15 | NC(=O)c1ccc(Sc2nnc(-c3cccs3)n2CC2CCCO2)c([N+](=O)[O-])c1 (stereo not shown) | -3.51%
16 | CN(C)c1ccc(-c2nc3ccccn3c2/N=C/c2ccc(Br)cc2)cc1 | 6.11%
17 | O=[N+]([O-])c1ccc(C(=S)N2CCCC2)cc1 | 0.872%
18 | Cn1cc(CN2CCC(N3CCNC(=O)CC3)CC2)c(-c2ccccc2F)n1 | 8.43%
19 | CCCN(CC(=O)Nc1ccc(F)c(F)c1F)CC(=O)Nc1c(C)n(C)n(-c2ccccc2)c1=O | 0.486%
20 | CC1CCCN(C(=O)CNC(=O)Cn2ccc3ccccc3c2=O)C1 (stereo not shown) | -5.78%
21 | Cc1ccc(C(=O)N2CCN(c3ccc(NC(=S)NC(=O)c4cccs4)cc3)CC2)cc1 | -9.1%
22 | CCN1CCN(c2ccc(S(=O)(=O)N3CCOCC3)cc2NC(=O)c2ccccc2SC)CC1 | -60.1%

Row | Compound | hERG current change (%, negative = inhibition) at 10uM
23 | O=C(c1ccc(F)cc1)N(c1ccccn1)C1CCCCC1 | 8.08%
24 | Cc1ccc(S(=O)(=O)Nc2cccc(-n3cnnn3)c2)cc1C(=O)O | 3.97%
25 | CCOc1cc(Cl)c(S(=O)(=O)NCCCN2CCOCC2)cc1Cl | -48.6%
26 | O=C1C2C3C=CC(C3)C2C(=O)N1Nc1ccccc1 (stereo not shown) | 11.3%
27 | CC1(C)Nc2ccc(O)cc2-c2c1ssc2=S | -2.85%
28 | COc1cc(NC(=O)c2c(F)cccc2F)nc(OC)n1 | 2.47%
29 | Cc1csc(N(C)C(=O)CSc2nnc(COc3ccccc3C)o2)n1 | -6.82%
30 | Cn1c(=O)c2c(nc(Sc3ncnn3CC(=O)N3CCOCC3)n2C)n(C)c1=O | 8.88%
31 | COc1cccc(C2=CC(=O)CC(C)(C)C2)n1 | 4.37%
32 | O=C(O)CCCCCNS(=O)(=O)/C=C/c1ccccc1 | 29.5%
33 | CCOC(=O)C(Cc1ccc(Cl)cc1Cl)c1ccno1 (stereo not shown) | 14.3%
34 | CCn1nnc(NC(=O)COc2ccc(C3CCCCC3)cc2)n1 | -22%
35 | CCCC1c2ccsc2CCN1C(=S)NC (stereo not shown) | 4.63%
36 | O=S(=O)(NCCc1cn2ccccc2n1)c1ccc(-c2ccccc2)cc1 | -62%
37 | COc1cc(Cl)ccc1OCc1cc(C(=O)N(C)CC2CCCCO2)no1 (stereo not shown) | -18.7%
38 | O=S(=O)(NCC(c1cccnc1)N1CCN(c2ccc(F)cc2)CC1)c1ccc(F)cc1 (stereo not shown) | -69%
39 | NC(=O)c1cc([N+](=O)[O-])ccc1NCc1cccnc1 | -20%
40 | Cc1ccccc1NC(=O)CCc1c(C)nn(-c2ccc(N3CCOCC3)nn2)c1C | -1.3%
41 | CCOC(=O)c1csc(COc2ccccc2Cl)n1 | -38.5%
42 | CC1=C(C(=O)OCC(C)C)C2(O)C(=O)c3ccccc3C2(O)N1 (stereo not shown) | 3.4%
43 | COCc1nnc(NC(=O)c2ccc(S(=O)(=O)N3CCOCC3)cc2)o1 | 10.9%
44 | CCN(CC)CCNC(=O)c1cn(CC)c2ccc(S(=O)(=O)N3CCc4ccccc4C3)cc2c1=O | -59.4%

Row | Compound | hERG current change (%, negative = inhibition) at 10uM
45 | O=C(Nc1ccc(F)cc1F)c1ccc2ncsc2c1 | 4.79%
46 | COc1ccc(-c2csc3ncnc(N4CCN(c5ccccc5[N+](=O)[O-])CC4)c23)cc1 | 14.8%
47 | Cc1nnc(N2C(=O)C(=O)/C(=C(/O)c3ccc4c(c3)OCCO4)C2c2ccc(F)cc2)s1 (stereo not shown) | 20.4%
48 | COc1ccc(NC(=O)CCC(=O)c2cccs2)c(OC)c1 | 4.43%
49 | COCCOC(=O)C1=C(C)N(c2ccccc2)C(=O)NC1c1cccc([N+](=O)[O-])c1 (stereo not shown) | -12.9%
50 | COc1ccc(NC(=O)[C@H](COCc2ccccc2)NC(=O)OC(C)(C)C)cc1 | -7%
51 | Cc1onc(-c2c(F)cccc2Cl)c1C(=O)NC1CCCCCC1 | -12.7%
52 | OCCC1CN(Cc2cccc3nonc23)CCN1C1CCCCC1 (stereo not shown) | -5.74%
53 | COc1ccccc1CC(=O)Nc1ccccc1O | 13%
54 | Cc1cccc(C)c1NC(=O)CN1N=NC2C(=O)N(c3cccc(Cl)c3)C(=O)C21 (stereo not shown) | -6.3%
55 | N#Cc1c(NC(=O)CCN2C(=O)c3ccccc3C2=O)oc(-c2ccccc2)c1-c1ccccc1 | -11.7%
56 | CC(C)n1c(Sc2nccn2C)nc2c1c(=O)n(C)c(=O)n2C | 0.592%
57 | CN=c1scc(-c2ccccc2F)n1/N=C(\C)c1cccnc1 | -28.9%
58 | COc1ccc(NC(=O)COC(=O)Cc2c(F)cccc2Cl)cc1 | -0.319%
59 | CC(NC(=O)CCCC1CCCCC1)c1ccc(S(N)(=O)=O)cc1 (stereo not shown) | 16.4%
60 | CC(=O)CSc1nnc(Cc2ccc([N+](=O)[O-])cc2)o1 | 2.42%
61 | COc1ccc(NC(=O)COC(=O)c2ccc(-n3cnnn3)cc2)c([N+](=O)[O-])c1 | 6.42%
62 | Cc1cc(C=C2C(=O)c3ccccc3C2=O)c(C)n1-c1ccc(C(=O)O)cc1 | 1.68%
63 | Cc1ccc(NC(=O)CSc2n[nH]c(-c3ccco3)n2)c(C)c1 | 1.78%
64 | CC(=O)N(CCc1ccccc1C)Cc1cc2cc3c(cc2[nH]c1=O)OCO3 | -11.1%
65 | CCOC(=O)[C@H]1[C@H]2COc3ccc(Cl)cc3[C@@H]2N2C(=O)c3cc(Br)ccc3NC(=O)[C@@]12C | 4.5%
66 | COc1ccc2cc3cc(C(=O)NCCN4CCN(c5ccccc5F)CC4)oc3nc2c1 | -15.8%

Row | Compound | hERG current change (%, negative = inhibition) at 10uM
67 | Cc1ccc(/C=C/C(=O)OCc2nc(N)nc(Nc3ccccc3C)n2)o1 | -21.7%
68 | O=C1CCCc2ccccc2N1Cc1c(Cl)cccc1Cl | -18.8%
69 | Cc1cccc(-c2nc3ccccc3c3nncn23)c1 | -12.1%
70 | CCC(=O)N(CCC(c1ccc(C)cc1)c1ccco1)Cc1ccco1 (stereo not shown) | -18.5%
71 | CCOc1ccc(/C=N/NC(=O)c2nnn(-c3nonc3N)c2-c2cccs2)cc1 | 13%
72 | CCOC(=O)c1ccc(NC(=S)NCCCN2CCCCC2)cc1 | -42%
73 | O=C(Nc1c(C(=O)NCc2ccco2)cnn1-c1ccccc1)c1ccc(F)cc1 | 15.6%
74 | CCn1cc(C(=O)NC(=S)Nc2sc3c(c2C(=O)OC)CCCCCC3)cn1 | 17.9%
75 | CC(=O)N=c1n(C)c2ccccc2n1CCOc1ccccc1 | 3.65%
76 | O=C(Nc1ccccc1C(=O)O)c1cccc(N2C(=O)c3ccccc3C2=O)c1 | 11.9%
77 | Cc1ccc(S(=O)(=O)NCC(=O)N(CC(=O)NC2CCCC2)CC2CCCO2)cc1 (stereo not shown) | 10.5%
78 | Cc1cc(NS(=O)(=O)c2ccc(NC(=O)COc3ccc(Cl)cc3Cl)cc2)no1 | 1.89%
79 | S=C(Nc1ccccc1)Nc1nc2ccccc2n1CCOc1ccc(Br)cc1 | 11.6%
80 | Cc1ccc(CNC(=O)CCNS(=O)(=O)c2cccc3nonc23)cc1 | 15.6%
81 | CCOc1ccc(/C=N/Nc2ccccc2)cc1 | 17.6%
82 | O=[N+]([O-])c1cc(S(=O)(=O)N2CCOCC2)ccc1N1CCCC1 | -6.06%
83 | COc1ccccc1Oc1ccc2c(c1)C(=O)N(c1ccc(Br)c3cccnc13)C2=O | -2.37%
84 | C=CCN(CC=C)C(=O)C1CC(=O)N(c2ccc(Br)cc2)C1 (stereo not shown) | -59.2%
85 | C=CCOC(=O)c1ccc(-n2cncn2)nc1 | -4.47%
86 | COc1cccc(NC(=O)CSc2nc3ccccc3c3nc4ccccc4n23)c1 | -7.77%
87 | CCCn1c(=O)[nH]c(=O)c2c1nc(-c1cccs1)n2CCOC | -6.05%
88 | Cc1ccc(N(CC(=O)NCCSCc2ccco2)S(=O)(=O)c2ccc(C)cc2)cc1 | -69.7%
